Test results from patent US20250333497A1, “ACTIVATING ANTIBODIES OF RECEPTOR PROTEINS PLXDC1 AND PLXDC2” (THE REGENTS OF THE UNIVERSITY OF CALIFORNIA, priority 2022, published 2025).

Assays:
[1] = target: T1, full length PLXDC1 (PLXDC1-Full) (Homo sapiens, UniProt Q8IUK5); assay: Domain A binding specificity: binding to full length PLXDC1 expressed in transfected cells
T1 construct: expressed in transfected cells
T1 sequence (Q8IUK5 19-500): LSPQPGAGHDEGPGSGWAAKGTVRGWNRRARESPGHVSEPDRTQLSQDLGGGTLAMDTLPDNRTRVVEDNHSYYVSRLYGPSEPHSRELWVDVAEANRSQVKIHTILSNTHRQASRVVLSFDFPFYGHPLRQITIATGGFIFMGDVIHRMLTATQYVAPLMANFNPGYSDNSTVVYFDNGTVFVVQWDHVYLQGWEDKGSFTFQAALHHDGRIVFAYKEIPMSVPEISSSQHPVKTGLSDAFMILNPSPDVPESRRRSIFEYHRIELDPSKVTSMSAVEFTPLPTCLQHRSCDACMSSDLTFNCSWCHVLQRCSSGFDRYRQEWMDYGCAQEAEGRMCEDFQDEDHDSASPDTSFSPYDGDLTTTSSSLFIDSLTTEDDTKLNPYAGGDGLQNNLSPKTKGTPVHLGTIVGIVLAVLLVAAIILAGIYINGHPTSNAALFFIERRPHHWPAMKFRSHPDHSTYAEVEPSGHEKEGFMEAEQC
Text: (§1) The specific binding to Domain A of a PLXDC protein can be tested with a method described herein. In some embodiments, the method employs a PLXDC with the Domain A deleted. […] An example is Compound 369 as described above.
(§2) The Domain A-binding antibodies are 3-C11, 4-A8, 5-E2, 2-H2, 3-G6, 3-G7, 8-A7, 8-A9, 8-C9 and 8-D9.
(§3) Both full length PLXDC1 and Domain A deleted PLXDC1 (PLXDC1-dA) have an epitope tag on the N-terminus.

[2] = target: T2, Domain A-deleted PLXDC1 (PLXDC1-dA) (Homo sapiens, UniProt Q8IUK5); assay: Domain A binding specificity: binding to Domain A-deleted PLXDC1 expressed in transfected cells
T2 construct: expressed in transfected cells
Text: as §1, §2, §3

[3] = antibodies of Table 3 tested for ability to bind Domain A
[4] = transfected into a cell line that does not express PLXDC1, FIG. 3-4

binding to PLXDC1 [1, 3]: able to bind PLXDC1
binding to full length PLXDC1 (PLXDC1-Full) [1, 4]: only bound to full length PLXDC1
binding to PLXDC1 mutant with Domain A deleted [2, 3]: not the mutant with Domain A deleted
binding to Domain A-deleted PLXDC1 (PLXDC1-dA) [2, 4]: did not bind to Domain A-deleted PLXDC1
B1: A003: VH SEQ ID NO:98, VL SEQ ID NO:99; Domain A-binding PLXDC1-activating antibody (antibody, V domains shown)
VH: QVQLVESGGGVVQPGRSLRLSCAASGFTFRDYGMHWVRQAPGKGLEWVAVISYHGRNEYYANSVKGRFTISRDNSKNTLYLQMNSLRAEDTAVYYCARGAYGDDFDVWGQGTLVTVSS
VL: [not shown - about 100 residues]
